Experimental data taken from patent publication US11618753B2 (priority 2018, dated 2023).
Where a name gives a salt, the structure may show the parent alone.

These compounds were tested on MLKL phosphorylation, HT29-L23 human colorectal adenocarcinoma cells (assay: cells). Settings: read-out: pMLKL HCS Cell Assay (IC50, uM).

SMILES | IC50 [µM]
Cc1ncc(-c2cc(C(F)(F)F)c3c(N)ncnn23)cc1C(=O)N[C@@H]1CN(C(=O)C2(F)CC2)C[C@@H]1F [Example 369, 5-[4-amino-5-(trifluoromethyl)pyrrolo [2,1-f][1,2,4]triazin-7-yl]-N-[(3R,4S)-4-fluoro-1-(1-fluorocyclopropane-carbonyl)pyrrolidin-3-yl]-2-methyl-pyridine-3-carboxamide] | 0.017
Cc1ncc(-c2cc(C(F)(F)F)c3c(N)ncnn23)cc1C(=O)N[C@@H]1CN(C(=O)[C@H](O)C(F)(F)F)C[C@@H]1F [Example 370, 5-[4-amino-5-(trifluoromethyl)pyrrolo [2,1-f][1,2,4]triazin-7-yl]-N-[(3R,4S)-4-fluoro-1-[(2S)-3,3,3-trifluoro-2-hydroxy-propanoyl]pyrrolidin-3-yl]-2-methyl-pyridine-3-carboxamide] | 0.13
Cc1ncc(-c2cc(C(F)(F)F)c3c(N)ncnn23)cc1C(=O)N[C@@H]1CN(C(=O)[C@](C)(O)C(F)(F)F)C[C@@H]1F [Example 372, 5-[4-amino-5-(trifluoromethyl)pyrrolo [2,1-f][1,2,4]triazin-7-yl]-N-[(3R,4S)-4-fluoro-1-[(2S)-3,3,3-trifluoro-2-hydroxy-2-methylpropanoyl]pyrrolidin-3-yl]-2-methylpyridine-3-carboxamide, TFA] | 0.117
Cc1ncc(-c2cc(C(F)(F)F)c3c(N)ncnn23)cc1C(=O)N[C@@H]1CN(C(=O)[C@@H](O)C(C)(C)C)C[C@@H]1F [Example 373, 5-[4-amino-5-(trifluoromethyl)pyrrolo [2,1-f][1,2,4]triazin-7-yl]-N-[(3R,4S)-4-fluoro-1-[(2S)-2-hydroxy-3,3-dimethyl-butanoyl]pyrrolidin-3-yl]-2-methyl-pyridine-3-carboxamide] | 0.05
Cc1ncc(-c2cc(C(F)(F)F)c3c(N)ncnn23)cc1C(=O)N[C@@H]1CN(C(=O)C(C)(C)F)C[C@@H]1F [Example 374, 5-[4-amino-5-(trifluoromethyl)pyrrolo [2,1-f][1,2,4]triazin-7-yl]-N-[(3R,4S)-4-fluoro-1-(2-fluoro-2-methylpropanoyl)pyrrolidin-3-yl]-2-methylpyridine-3-carboxamide] | 0.013
[2H]C([2H])([2H])Oc1ncc(-c2cc(C(F)(F)F)c3c(N)ncnn23)cc1C(=O)N[C@@H]1CN(C(=O)C2CCC(F)(F)CC2)C[C@@H]1F [Example 375, 5-[4-amino-5-(trifluoromethyl)pyrrolo [2,1-f][1,2,4]triazin-7-yl]-N-[(3R,4S)-1-(4,4-difluorocyclohexanecarbonyl)-4-fluoropyrrolidin-3-yl]-2-(deutero) methoxypyridine-3-carboxamide] | 0.013
[2H]C([2H])([2H])Oc1ncc(-c2cc(C(F)(F)F)c3c(N)ncnn23)cc1C(=O)N[C@@H]1CN(C(=O)c2ccc(F)cc2)C[C@@H]1F [Example 376, 5-[4-amino-5-(trifluoromethyl)pyrrolo [2,1-f][1,2,4]triazin-7-yl]-N-[(3R,4S)-4-fluoro-1-(4-fluorobenzoyl)pyrrolidin-3-yl]-2-(deutero)methoxypyridine-3-carboxamide] | 0.0091
[2H]C([2H])([2H])Oc1ncc(-c2cc(C(F)(F)F)c3c(N)ncnn23)cc1C(=O)NC1CN(C(=O)C2CC2(F)F)C[C@@H]1F (stereo partly drawn) [Example 377, 5-[4-amino-5-(trifluoromethyl)pyrrolo [2,1-f][1,2,4]triazin-7-yl]-N-[(3R,4S)-1-(2,2-difluorocyclopropanecarbonyl)-4-fluoropyrrolidin-3-yl]-2-(Deutro) methoxypyridine-3-carboxamide] | 0.0055
[2H]C([2H])([2H])Oc1ncc(-c2cc(C(F)(F)F)c3c(N)ncnn23)cc1C(=O)N[C@@H]1CN(C(=O)C(C)(C)F)C[C@@H]1F [Example 381, 5-[4-amino-5-(trifluoromethyl)pyrrolo [2,1-f][1,2,4]triazin-7-yl]-N-[(3R,4S)-4-fluoro-1-(2-fluoro-2-methylpropanoyl)pyrrolidin-3-yl]-2-(deutero)methoxy-pyridine-3-carboxamide] | 0.026
[2H]C([2H])([2H])Oc1ncc(-c2cc(C(F)(F)F)c3c(N)ncnn23)cc1C(=O)N[C@@H]1CN(C(=O)c2cc(F)ccc2F)C[C@@H]1F [Example 383, 5-[4-amino-5-(trifluoromethyl)pyrrolo [2,1-f][1,2,4]triazin-7-yl]-N-[(3R,4S)-1-(2,5-difluorobenzoyl)-4-fluoro-pyrrolidin-3-yl]-2-(deutero)methoxy-pyridine-3-carboxamide, TFA] | 0.0072
[2H]C([2H])([2H])Oc1ncc(-c2cc(C(F)(F)F)c3c(N)ncnn23)cc1C(=O)N[C@@H]1CN(C(=O)CC(C)(C)O)C[C@@H]1F [Example 385, 5-[4-amino-5-(trifluoromethyl)pyrrolo [2,1-f][1,2,4]triazin-7-yl]-N-[(3R,4S)-4-fluoro-1-(3-hydroxy-3-methyl-butanoyl)pyrrolidin-3-yl]-2-(deutero) methoxypyridine-3-carboxamide, TFA] | 0.291
[2H]C([2H])([2H])Oc1ncc(-c2cc(C(F)(F)F)c3c(N)ncnn23)cc1C(=O)N[C@@H]1CN(C(=O)CC(C)C)C[C@@H]1F [Example 387, 5-[4-amino-5-(trifluoromethyl)pyrrolo [2,1-f][1,2,4]triazin-7-yl]-N-[(3R,4S)-4-fluoro-1-(3-methylbutanoyl)pyrrolidin-3-yl]-2-(deutero)methoxypyridine-3-carboxamide, TFA] | 0.015
[2H]C([2H])([2H])Oc1ncc(-c2cc(C(F)(F)F)c3c(N)ncnn23)cc1C(=O)N[C@@H]1CN(C(=O)C2CC(F)(F)C2)C[C@@H]1F [Example 390, 5-(4-amino-5-(trifluoromethyl)pyrrolo [2,1-f][1,2,4]triazin-7-yl)-N-((3R,4S)-1-(3,3-difluorocyclobutane-1-carbonyl)-4-fluoropyrrolidin-3-yl)-2-(methoxy-d3) nicotinamide] | 0.011
Cc1cc(F)c(C(=O)N[C@@H]2CN(C(=O)c3ccccc3F)C[C@@H]2F)cc1-c1cc(C(F)(F)F)c2c(N)ncnn12 [Example 391, 5-[4-amino-5-(trifluoromethyl)pyrrolo[2,1-f][1,2,4]triazin-7-yl]-2-fluoro-N-[(3R,4S)-4-fluoro-1-(2-fluorobenzoyl)pyrrolidin-3-yl]-4-methylbenzamide] | 0.215
Cc1cc(F)c(C(=O)N[C@@H]2CN(C(=O)C3CCC(F)(F)C3)C[C@@H]2F)cc1-c1cc(C(F)(F)F)c2c(N)ncnn12 (stereo partly drawn) [Example 392, 5-[4-amino-5-(trifluoromethyl)pyrrolo[2,1-f][1,2,4]triazin-7-yl]-N-[(3R,4S)-1-(3,3-difluorocyclopentanecarbonyl)-4-fluoropyrrolidin-3-yl]-2-fluoro-4-methylbenzamide] | 0.277
Cc1cc(F)c(C(=O)N[C@@H]2CN(C(=O)[C@@](C)(O)C(F)(F)F)C[C@@H]2F)cc1-c1cc(C(F)(F)F)c2c(N)ncnn12 [Example 394, 5-[4-amino-5-(trifluoromethyl)pyrrolo[2,1-f][1,2,4]triazin-7-yl]-2-fluoro-N-[(3R,4S)-4-fluoro-1-[(2R)-3,3,3-trifluoro-2-hydroxy-2-methylpropanoyl]pyrrolidin-3-yl]-4-methyl-benzamide] | 0.076
Nc1ncnn2c(-c3cc(C(=O)N[C@@H]4CN(C(=O)C5(O)CCC5)C[C@@H]4F)c(Cl)cc3F)cc(C(F)(F)F)c12 [Example 395, 5-[4-amino-5-(trifluoromethyl)pyrrolo[2,1-f][1,2,4]triazin-7-yl]-2-chloro-4-fluoro-N-[(3R,4S)-4-fluoro-1-(1-hydroxycyclobutane-carbonyl)pyrrolidin-3-yl] benzamide] | 0.012
CC(C)(O)CC(=O)N1C[C@H](F)[C@H](NC(=O)c2cc(-c3cc(C(F)(F)F)c4c(N)ncnn34)c(F)cc2Cl)C1 [Example 396, 5-[4-amino-5-(trifluoromethyl)pyrrolo[2,1-f][1,2,4]triazin-7-yl]-2-chloro-4-fluoro-N-[(3R,4S)-4-fluoro-1-(3-hydroxy-3-methylbutanoyl)pyrrolidin-3-yl] benzamide] | 0.145
Nc1ncnn2c(-c3cc(C(=O)N[C@@H]4CN(C(=O)C5(O)CCCC5)C[C@@H]4F)c(Cl)cc3F)cc(C(F)(F)F)c12 [Example 397, 5-[4-amino-5-(trifluoromethyl)pyrrolo[2,1-f][1,2,4]triazin-7-yl]-2-chloro-4-fluoro-N-[(3R,4S)-4-fluoro-1-(1-hydroxycyclopentanecarbonyl)pyrrolidin-3-yl] benzamide, TFA] | 0.0087
Nc1ncnn2c(-c3cc(C(=O)N[C@@H]4CN(C(=O)c5ccccc5F)C[C@@H]4F)c(Cl)cc3F)cc(C(F)(F)F)c12 [Example 399, 5-[4-amino-5-(trifluoromethyl)pyrrolo[2,1-f][1,2,4]triazin-7-yl]-2-chloro-4-fluoro-N-[(3R,4S)-4-fluoro-1-(2-fluorobenzoyl)pyrrolidin-3-yl]benzamide] | 0.025
CC(C)(F)C(=O)N1C[C@H](F)[C@H](NC(=O)c2cc(-c3cc(C(F)(F)F)c4c(N)ncnn34)c(F)cc2Cl)C1 [Example 401, 5-[4-amino-5-(trifluoromethyl)pyrrolo[2,1-f][1,2,4]triazin-7-yl]-2-chloro-4-fluoro-N-[(3R,4S)-4-fluoro-1-(2-fluoro-2-methyl-propanoyl)pyrrolidin-3-yl] benzamide] | 0.027
C[C@@](O)(C(=O)N1C[C@H](F)[C@H](NC(=O)c2cc(-c3cc(C(F)(F)F)c4c(N)ncnn34)c(F)cc2Cl)C1)C(F)(F)F [Example 402, 5-[4-amino-5-(trifluoromethyl)pyrrolo[2,1-f][1,2,4]triazin-7-yl]-2-chloro-4-fluoro-N-[(3R,4S)-4-fluoro-1-[(2R)-3,3,3-trifluoro-2-hydroxy-2-methylpropanoyl]pyrrolidin-3-yl]benzamide] | 0.0048
Nc1ncnn2c(-c3cc(C(=O)N[C@@H]4CN(C(=O)CC(F)(F)F)C[C@@H]4F)c(Cl)cc3F)cc(C(F)(F)F)c12 [Example 403, 5-[4-amino-5-(trifluoromethyl)pyrrolo[2,1-f][1,2,4]triazin-7-yl]-2-chloro-4-fluoro-N-[(3R,4S)-4-fluoro-1-(3,3,3-trifluoropropanoyl)pyrrolidin-3-yl]benzamide] | 0.025
